# Laboratory results as given in the supplement of paper PMC8728848.
# The other results are listed elsewhere or left out.
# Experiments:
# Experiment in all cases: glycan array binding signal (z-score within array); higher = stronger binding
# Conditions in all cases: glycan notation: IUPAC condensed, linker removed
# [1] = biological target: Neu5Ac(a2-3)Gal(b1-4)GlcNAc(b1-3)[Neu5Ac(a2-3)Gal(b1-4)GlcNAc(b1-6)]GalNAc
# Procedure, shortened: (§1)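 The Consortium for Functional Glycomics database supplied 3228 glycan arrays, of which those lacking an available protein sequence were dropped. The binding signal, a within-array Z-score, was averaged across arrays of the same protein sequence and across linkers. Negative scores can be read as non-binding.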
# [2] = biological target: Neu5Ac(a2-3)Gal(b1-4)GlcNAc(b1-6)GalNAc
# Procedure, shortened: as §1
# [3] = biological target: Neu5Ac(a2-3)Gal(b1-4)GlcNAc(b1-6)[Gal(b1-3)]GalNAc
# Procedure, shortened: as §1
# [4] = biological target: Neu5Ac(a2-3)Gal(b1-4)GlcNAc(b1-6)[Neu5Ac(a2-3)Gal(b1-3)]GalNAc
# Procedure, shortened: as §1
# [5] = biological target: Neu5Ac(a2-3)Gal(b1-4)GlcNAc6S
# Procedure, shortened: as §1
# [6] = biological target: Neu5Ac(a2-3)Gal(b1-4)[Fuc(a1-3)]GlcNAc
# Procedure, shortened: as §1
# [7] = biological target: Neu5Ac(a2-3)Gal(b1-4)[Fuc(a1-3)]GlcNAc(b1-2)Man
# Procedure, shortened: as §1
# [8] = biological target: Neu5Ac(a2-3)Gal(b1-4)[Fuc(a1-3)]GlcNAc(b1-3)Gal
# Procedure, shortened: as §1
# [9] = biological target: Neu5Ac(a2-3)Gal(b1-4)[Fuc(a1-3)]GlcNAc(b1-3)Gal(b1-4)GlcNAc
# Procedure, shortened: as §1
# [10] = biological target: Neu5Ac(a2-3)Gal(b1-4)[Fuc(a1-3)]GlcNAc(b1-3)Gal(b1-4)[Fuc(a1-3)]GlcNAc(b1-3)Gal(b1-4)[Fuc(a1-3)]GlcNAc
# Procedure, shortened: as §1
# [11] = biological target: Neu5Ac(a2-3)Gal(b1-4)[Fuc(a1-3)]GlcNAc(b1-3)GalNAc
# Procedure, shortened: as §1
# [12] = biological target: Neu5Ac(a2-3)Gal(b1-4)[Fuc(a1-3)]GlcNAc(b1-6)[Gal(b1-3)]GalNAc
# Procedure, shortened: as §1
# [13] = biological target: Neu5Ac(a2-3)Gal(b1-4)[Fuc(a1-3)]GlcNAc(b1-6)[Neu5Ac(a2-3)Gal(b1-3)]GalNAc
# Procedure, shortened: as §1
# [14] = biological target: Neu5Ac(a2-3)Gal(b1-4)[Fuc(a1-3)]GlcNAc6S
# Procedure, shortened: as §1
# [15] = biological target: Neu5Ac(a2-3)Gal6S(b1-4)GlcNAc
# Procedure, shortened: as §1
# [16] = biological target: Neu5Ac(a2-3)Gal6S(b1-4)[Fuc(a1-3)]GlcNAc
# Procedure, shortened: as §1
# Neu5Ac(a2-3)GalNAc = biological target: Neu5Ac(a2-3)GalNAc
# Procedure, shortened: as §1
# [17] = biological target: Neu5Ac(a2-3)GalNAc(b1-4)GlcNAc
# Procedure, shortened: as §1
# [18] = biological target: Neu5Ac(a2-3)[GalNAc(b1-4)]Gal(b1-4)Glc
# Procedure, shortened: as §1
# [19] = biological target: Neu5Ac(a2-3)[GalNAc(b1-4)]Gal(b1-4)GlcNAc
# Procedure, shortened: as §1
# [20] = biological target: Neu5Ac(a2-3)[GalNAc(b1-4)]Gal(b1-4)GlcNAc(b1-3)GalNAc
# Procedure, shortened: as §1
# [21] = biological target: Neu5Ac(a2-3)[Neu5Ac(a2-6)]GalNAc
# Procedure, shortened: as §1
# Neu5Ac(a2-6)Gal = biological target: Neu5Ac(a2-6)Gal
# Procedure, shortened: as §1
# [22] = biological target: Neu5Ac(a2-6)Gal(b1-3)GlcNAc(b1-3)[Gal(b1-4)GlcNAc(b1-6)]Gal(b1-4)Glc
# Procedure, shortened: as §1
# Neu5Ac(a2-6)Gal(b1-4)Glc = biological target: Neu5Ac(a2-6)Gal(b1-4)Glc
# Procedure, shortened: as §1
# [23] = biological target: Neu5Ac(a2-6)Gal(b1-4)GlcNAc
# Procedure, shortened: as §1
# [24] = biological target: Neu5Ac(a2-6)Gal(b1-4)GlcNAc(b1-2)Man
# Procedure, shortened: as §1
# [25] = biological target: Neu5Ac(a2-6)Gal(b1-4)GlcNAc(b1-2)Man(a1-3)Man(b1-4)GlcNAc(b1-4)GlcNAc
# Procedure, shortened: as §1
# [26] = biological target: Neu5Ac(a2-6)Gal(b1-4)GlcNAc(b1-2)Man(a1-3)[Gal(b1-4)GlcNAc(b1-2)Man(a1-6)]Man(b1-4)GlcNAc(b1-4)GlcNAc
# Procedure, shortened: as §1
# [27] = biological target: Neu5Ac(a2-6)Gal(b1-4)GlcNAc(b1-2)Man(a1-3)[GlcNAc(b1-4)][Neu5Ac(a2-6)Gal(b1-4)GlcNAc(b1-2)Man(a1-6)]Man(b1-4)GlcNAc(b1-4)GlcNAc
# Procedure, shortened: as §1
binder,measurement,setting,value
"a L Fucosidase (Streptosporangium roseum), D2B1P1_STRRD (protein) MRRKLLLVPAVGLLVIGSIFATQPVASADTPPVYEPTVESLNSHPVPQWFNDDKFGIFIHWGAYSVPAWGPRGSYAEWYGNYMNAGGSATNAHHKATYGQDFNYDAFLQQWKAEKFDPADWVKLFKDAGAKYFVLTSKHHEGMALWDSKSSGRDSVDLGPGRDLAKELFDAARKDEAKLKAGFYYSLYEWYNPAYTGRPATNPYTGAEIPYTGAPGGGDYVKDYMLPQMRELIDGYDPDIIWCDGQWEKPASYWNTAGVIADYYNKALNSGKEVAVANRCKIQSGNLDSPELDFQTPEYTVKPDIDPVKWESSRGIAHSYGYNQNEPEEDHLTSDQLVDSLVDIVSKNGNLLLDIGPKADGTIPEIQRQRLLDIGAWLKANGEAIYGTTYWNRAEEKGGPDDVRYTAKDATLYATALKWPGEQLTLGADLPVDHSTRITMLGSGARLSWSRDEQGRVVVNTPQEAGKHAYVFKIETPGVRSLLRTSSSLAKEIAPGRTISGELTVTNPGKRHTPATKLSLTVPQGWTATLGAPRVRPLGPGESVKVPISVSAPEGVAPAPYTLGLYQRTGRMGTTTALPLTVNRPNLSLGKPATQKSTGYDAPASRAVDGNTGGDWSAGSTTHTAEPEKQAWWQVDLGASARLDSVDVWNRLDCCADRLKDFWVMASDQPFTTDDLDQARTAPGVTAVHVGEQAGSPSKVKLPEGTRGRYVRIQLASPSNPLSLAEVQVRGSMARPNLSLGKPATQKSTGYDAPASRAVDGNTGGDWSAGSTTHTAEPEKQAWWQVDLGASARLDSVDVWNRLDCCADRLKDFWVMASDQPFTTDDLDQARTAPGVTAVHVGEQAGSPSKVKLPEGTRGRYVRIQLASPSNPLSLAEVQVRLEHHHHHHS",glycan array binding signal (z-score),[1],-0.545
same,glycan array binding signal (z-score),[2],-0.204
same,glycan array binding signal (z-score),[3],0.139
same,glycan array binding signal (z-score),[4],-0.417
same,glycan array binding signal (z-score),[5],-0.48
same,glycan array binding signal (z-score),[6],-0.53
same,glycan array binding signal (z-score),[7],-0.149
same,glycan array binding signal (z-score),[8],-0.428
same,glycan array binding signal (z-score),[9],-0.252
same,glycan array binding signal (z-score),[10],-0.37
same,glycan array binding signal (z-score),[11],0.067
same,glycan array binding signal (z-score),[12],-0.531
same,glycan array binding signal (z-score),[13],-0.42
same,glycan array binding signal (z-score),[14],-0.247
same,glycan array binding signal (z-score),[15],-0.478
same,glycan array binding signal (z-score),[16],-0.575
same,glycan array binding signal (z-score),Neu5Ac(a2-3)GalNAc,0.096
same,glycan array binding signal (z-score),[17],0.076
same,glycan array binding signal (z-score),[18],-0.455
same,glycan array binding signal (z-score),[19],-0.513
same,glycan array binding signal (z-score),[20],-0.361
same,glycan array binding signal (z-score),[21],0.375
same,glycan array binding signal (z-score),Neu5Ac(a2-6)Gal,-0.528
same,glycan array binding signal (z-score),[22],-0.585
same,glycan array binding signal (z-score),Neu5Ac(a2-6)Gal(b1-4)Glc,-0.462
same,glycan array binding signal (z-score),[23],-0.397
same,glycan array binding signal (z-score),[24],-0.199
same,glycan array binding signal (z-score),[25],-0.533
same,glycan array binding signal (z-score),[26],-0.324
same,glycan array binding signal (z-score),[27],0.008
